Source: PubChem BioAssay AID492947 (National Center for Advancing Translational Sciences (NCATS), 2010)
Screen size: about 330,000 compounds; about 80 (0.02%) were called active. The inconclusive results got no clear call from the source; some entries with a clear call stand among them for comparison. The call rests on the fitted dose curve; in most records, active means well fitted activation curve with a large enough effect; inconclusive means small, poorly fitted or top-dose-only effect; inactive means flat fitted curve, though single readings scatter. No potency is given beside an inconclusive call; the fits are too rough.

The compounds below were run against Beta-2 adrenergic receptor (Homo sapiens) (UniProt P07550) (assay: qHTS assay of beta-arrestin-biased ligands of beta2-adrenergic receptor). Conditions: beta-arrestin recruitment to beta2AR, cell-based reporter; series mostly up to 46.1 µM; activation: at the top concentration.
In short: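 Agonism was measured as beta-arrestin recruitment to recombinant beta2-AR, releasing tTA to drive luciferase. Cells were exposed for 18 hr at 37 degrees C to a series up to 46 microM. %Activity from corrected luminescence gave concentration-response curves.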
Further: nearly all actives have a fitted effect of over 65% in size.
Potency means the concentration at half of the fitted maximal effect; tags describe the fitted curve by direction and shape.
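Wherever activation is given: 0% = DMSO controls and full agonism = EC100 isoproterenol or metaproterenol.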

Chain of UniProt P07550 (P07550 whole entry, looked up): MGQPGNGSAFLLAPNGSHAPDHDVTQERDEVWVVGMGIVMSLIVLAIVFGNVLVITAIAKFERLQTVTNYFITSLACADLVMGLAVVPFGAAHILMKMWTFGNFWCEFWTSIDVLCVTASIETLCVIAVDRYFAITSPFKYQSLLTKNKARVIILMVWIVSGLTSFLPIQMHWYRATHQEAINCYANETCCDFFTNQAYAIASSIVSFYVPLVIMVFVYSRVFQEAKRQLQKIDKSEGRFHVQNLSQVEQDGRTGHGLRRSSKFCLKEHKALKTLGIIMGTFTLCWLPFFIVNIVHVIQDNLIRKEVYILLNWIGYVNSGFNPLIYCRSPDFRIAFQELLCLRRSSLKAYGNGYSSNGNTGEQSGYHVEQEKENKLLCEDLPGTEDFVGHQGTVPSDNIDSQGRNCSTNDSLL

Question: O=C(CSc1cccc[n+]1[O-])CSc1cccc[n+]1[O-] was tested. Which Potency did it give?
Answer: inconclusive [rising, single point]

Question: For Cn1c(=O)c2c(nc(N/N=C/c3ccncc3)n2Cc2ccccc2)n(C)c1=O, which “activation” value is on record?
Answer: inactive: -0.125%

Question: COC(=O)C(NC(=O)COc1ccccc1)(Nc1nc2c(s1)CCCC2)C(F)(F)F (stereo not given) was tested. Which “activation” value did it give?
Answer: inactive: -0.239%

Question: With CC(=O)Nc1nonc1NC(=O)CSc1nc2ccccc2o1 as the compound, how does the Potency read?
Answer: inconclusive [rising, single point]

Question: How did the Potency turn out when Cc1ccc(NC(=S)NC(NC(=O)c2ccco2)C(Cl)(Cl)Cl)cc1 (stereo not given) was run?
Answer: inconclusive [rising, single point]

Question: Which Potency does the source give for CCNC(=S)N/N=C/c1sccc1C here?
Answer: inconclusive [rising, single point]

Question: How did the Potency turn out when CCNc1nc(NC(C)CC)nc(ON=C(C)C)n1 (stereo not given) was run?
Answer: inconclusive [rising, single point]

Question: C=CCN1C(=O)N/C(=C/c2ccc(N3CCOCC3)o2)C1=O was tested. Which Potency did it give?
Answer: inconclusive [rising, single point]

Question: Cc1nn2c(c1-c1ccccc1)N=C(c1ccco1)CC2c1ccccc1 (stereo not given) was tested. Which Potency did it give?
Answer: inconclusive [rising, single point]

Question: C=CC(=O)NCC1OCCc2ccccc21 (stereo not given) was tested. Which “activation” value did it give?
Answer: inactive: -0.796%

Question: How did the Potency turn out when Cc1ccnc(NC(=O)c2c(-c3ccccc3Cl)noc2C)c1 was run?
Answer: inconclusive [rising, partial curve, poor fit]

Question: Cc1nc(SCC(=O)NCC2CCCO2)c2cc(-c3ccccc3)sc2n1 (stereo not given) was tested. Which “activation” value did it give?
Answer: inactive: -0.188%

Question: Which Potency does the source give for CC(C)NC(=S)NN=C1CCC(c2ccccc2)CC1 (stereo not given) here?
Answer: inconclusive [rising, single point]

Question: COc1ccc2nc(Cl)c(/C=N/Nc3ccccn3)cc2c1 was tested. Which “activation” value did it give?
Answer: inactive: 0.0054%

Question: For CC1CN(C(=O)CSc2nnc(CNC(=O)c3ccc(S(=O)(=O)N(C)C)cc3)o2)CC(C)O1 (stereo not given), which “activation” value is on record?
Answer: inactive: -0.764%

Question: COC(=O)C(=O)C/C(=N/Nc1ncnc2ccccc12)c1ccc(Cl)cc1 was tested. Which “activation” value did it give?
Answer: inactive: 0.0847%

Question: Which Potency does the source give for C/C=C(\C)C(=O)NCCN1C2=NC[C@H](Cc3ccccc3)N2C[C@H]1Cc1ccc(O)cc1 here?
Answer: inconclusive [rising, single point]

Question: Which “activation” value does the source give for COc1cccc(OC)c1OCCN1CCCC1 here?
Answer: inactive: -0.704%

Question: With Cc1ccc(OCCCC(=O)Nc2nc3ccccc3[nH]2)cc1 as the compound, how does the “activation” value read?
Answer: inactive: 0.0977%

Question: S=C1NC2(CCCCC2)NN1c1ccccc1 was tested. Which “activation” value did it give?
Answer: inactive: -1.5%

Question: O=C1C[C@@H](c2ccc(O[C@@H]3O[C@H](CO)[C@@H](O)[C@H](O)[C@H]3O)cc2)Oc2cc(O)ccc21 was tested. Which Potency did it give?
Answer: inconclusive [rising, single point]

Question: For CCc1ccc(C(=O)/C=C/c2ccc([N+](=O)[O-])o2)cc1, which Potency is on record?
Answer: inconclusive [rising, full curve, poor fit]

Question: CCOc1cc(CNc2ccc3[nH]c(=O)[nH]c3c2)ccc1OCC(=O)NC(C)(C)C was tested. Which “activation” value did it give?
Answer: inactive: 0.129%

Question: How did the Potency turn out when O=C(COC(=O)c1ccccn1)c1ccc([N+](=O)[O-])cc1 was run?
Answer: inconclusive [rising, single point]

Question: For CN(C)c1ccc(/C=C/c2nc3ccccc3s2)cc1, which “activation” value is on record?
Answer: inactive: -0.647%

Question: How did the Potency turn out when Cc1ccc(C)c(NC(=S)N=Nc2c(O)n(C)c3ccc(S(=O)(=O)N4CCOCC4)cc23)c1 was run?
Answer: inconclusive [activator, partial curve]

Question: Which Potency does the source give for C=CCn1c(O)c(N=NC(=S)Nc2ccccc2F)c2cc(S(=O)(=O)N3CCOCC3)ccc21 here?
Answer: inconclusive [rising, single point]

Question: With CNc1nc(=S)[nH]c2ccccc12 as the compound, how does the “activation” value read?
Answer: inactive: -0.0437%

Question: For CC(=O)c1ccc(NC(=O)C(C)OC(=O)C2CC(=O)N(c3ccc4c(c3)OCCO4)C2)cc1 (stereo not given), which Potency is on record?
Answer: inconclusive [rising, single point]

Question: With COc1ccc(C2CC3(CC(C)(C)NC(=S)N3)Oc3cc(O)cc(C)c32)cc1 (stereo not given) as the compound, how does the Potency read?
Answer: inconclusive [rising, single point]

Question: For O=[N+]([O-])c1cc(Br)c(Nc2ccccc2)c([N+](=O)[O-])c1, which “activation” value is on record?
Answer: inactive: 0.254%

Question: For Cc1cc(C)cc(NC(=O)c2ccc(S(=O)(=O)NCc3cccnc3)cc2)c1, which “activation” value is on record?
Answer: inactive: 0.24%

Question: How did the Potency turn out when CN1CCN(C(c2cccnc2)c2ccc3cccnc3c2O)CC1 (stereo not given) was run?
Answer: inconclusive [rising, single point]

Question: How did the Potency turn out when COc1ccc(-c2cc(OC(=O)c3ccc(F)cc3)c3c(C)oc(C)c3c(=O)c2)cc1 was run?
Answer: inconclusive [activator, partial curve]

Question: COc1ccc(C(C)=O)c(OC(=O)c2ccco2)c1 was tested. Which “activation” value did it give?
Answer: inactive: -0.396%

Question: With O=c1c2cn[nH]c2nc(SCc2ccccc2F)n1-c1ccc(Br)cc1 as the compound, how does the Potency read?
Answer: inconclusive [rising, single point]

Question: How did the “activation” value turn out when CN(C)CCCN1C(=O)c2cc3ccccc3cc2C1=O was run?
Answer: inactive: -0.564%

Question: Which Potency does the source give for O=c1[nH]c(CSc2cccc[n+]2[O-])nc2ccccc12 here?
Answer: inconclusive [rising, single point]

Question: With O=C(CSc1nc(-c2ccccc2)nc2c1Cc1ccccc1O2)Nc1ccc(C(=O)O)cc1 as the compound, how does the “activation” value read?
Answer: inactive: -0.33%

Question: Cc1cccc(NC(=O)CSc2cccc3cccnc23)c1C was tested. Which Potency did it give?
Answer: inconclusive [rising, single point]

Question: With CC(NC(=O)c1ccccc1)C(=O)NC1=NCCS1 (stereo not given) as the compound, how does the “activation” value read?
Answer: inactive: -0.0097%

Question: How did the Potency turn out when COc1ccc(NC(=O)CSc2nc3c(c(=O)n2-c2ccccc2)SCC3)c(OC)c1 was run?
Answer: inconclusive [rising, single point]

Question: With Cc1cc(C)nc(N2CCC(C(=O)NCc3ccco3)CC2)n1 as the compound, how does the “activation” value read?
Answer: inactive: -0.418%

Question: With CCc1nnc(NS(=O)(=O)c2ccccc2)s1 as the compound, how does the Potency read?
Answer: inconclusive [rising, single point]

Question: For CCOC(=O)c1cnc(Nc2nc3ccccc3o2)nc1CSC(=S)N(CC)CC, which Potency is on record?
Answer: inconclusive [activator, partial curve]

Question: With Cc1ccc(OCC(=O)N/N=C/C=C/c2ccco2)c(Br)c1 as the compound, how does the Potency read?
Answer: inconclusive [rising, single point]

Question: For S=C(N/N=C/c1ccc(Cl)c(Cl)c1)Nc1ccccc1Cl, which Potency is on record?
Answer: inconclusive [activator, full curve]

Question: CCOc1ccc2nc(N3C(=O)CNC3=S)sc2c1 was tested. Which Potency did it give?
Answer: active: 3.98 µM

Question: Which “activation” value does the source give for Cc1cccc(C(=O)NC(=S)Nc2ccccc2C(F)(F)F)c1 here?
Answer: inactive: 4.43%

Question: With CCOc1cccc(CNc2ccc(O)cc2)c1OCc1ccc(Cl)cc1Cl as the compound, how does the Potency read?
Answer: inconclusive [rising, single point]

Question: How did the Potency turn out when CCOC(=O)c1ccc(NC(=S)NNC(C)(C)C)cc1 was run?
Answer: active: 22.4 µM

Question: With Oc1ccc(N=Cc2ccc(O)c(O)c2)cc1 as the compound, how does the Potency read?
Answer: inconclusive [rising, single point]

Question: With COc1ccc(C(=O)NCC(=O)N/N=C/c2ccc([N+](=O)[O-])o2)cc1OC as the compound, how does the Potency read?
Answer: inconclusive [rising, single point]

Question: How did the Potency turn out when Cc1nnc(NC(=O)c2ccc3ccccc3c2)o1 was run?
Answer: inconclusive [rising, single point]

Question: For COc1ccc(S(=O)(=O)N2CCOCC2)cc1NC(=O)[C@@H]1CCCN1C(=O)c1cccs1, which “activation” value is on record?
Answer: inactive: 0.478%

Question: For COCCNC(=S)N/N=C(\C)c1cccc(C(F)(F)F)c1, which Potency is on record?
Answer: inconclusive [rising, single point]

Question: With CN(C)c1cccc(C(=O)OCC(=O)Nc2nccs2)c1 as the compound, how does the Potency read?
Answer: inconclusive [rising, single point]

Question: How did the “activation” value turn out when CC(OC(=O)CCN1C(=O)C2CC=CCC2C1=O)C(=O)Nc1cccc(C#N)c1 (stereo not given) was run?
Answer: inactive: -0.531%

Question: For CCSc1nc2ccccc2n1C(=O)/C=C/c1ccc(OC)c(OC)c1, which Potency is on record?
Answer: inconclusive [rising, single point]

Question: Oc1ccccc1/C=N/Nc1ccnc(SCc2ccccc2)n1 was tested. Which Potency did it give?
Answer: inconclusive [rising, full curve, poor fit]

Question: With Clc1ccc(/C=N/Nc2ncnc3ccccc23)cc1Cl as the compound, how does the Potency read?
Answer: inconclusive [rising, single point]

Question: COc1ccc(C(NC(=O)C(C)C)c2ccc3cccnc3c2O)cc1 (stereo not given) was tested. Which Potency did it give?
Answer: inconclusive [activator, full curve]

Question: Which Potency does the source give for CC1=NN(C(N)=S)C(=O)C1N=Nc1cc(Cl)ccc1Cl (stereo not given) here?
Answer: inconclusive [rising, single point]

Question: With Cc1onc(-c2c(F)cccc2Cl)c1C(=O)N1CCSCC1 as the compound, how does the Potency read?
Answer: inconclusive [rising, full curve, poor fit]

Question: Which “activation” value does the source give for O=[N+]([O-])c1ccc(O)c(C=Nc2ccc3oc(Cc4ccc(Cl)cc4)nc3c2)c1 here?
Answer: inactive: 0.149%

Question: O=C(N/N=C/c1ccccc1OC(=O)c1ccc2c(c1)OCO2)c1cccc(F)c1 was tested. Which Potency did it give?
Answer: inconclusive [rising, single point]

Question: CCCCc1nc(SCC(=O)N2CCOCC2)c2c(=O)n(C)c(=O)n(C)c2n1 was tested. Which Potency did it give?
Answer: inconclusive [rising, single point]

Question: COc1ccc(C2=NN(C(=O)/C=C/c3ccccc3)C(c3ccccc3)C2)c(OC(C)=O)c1 (stereo not given) was tested. Which Potency did it give?
Answer: inconclusive [rising, single point]

Question: Which Potency does the source give for O=C(O)c1cc(Cl)c(Cl)cc1C(=O)Nc1cccnc1 here?
Answer: inconclusive [rising, single point]

Question: Which Potency does the source give for CCN(CC(=O)Nc1ccccc1SC)Cc1nc2ccccc2c(=O)[nH]1 here?
Answer: inconclusive [rising, single point]

Question: For Cc1ccc(NC(=O)C[n+]2cc(-c3ccccc3)n3c2CCC3)cc1, which “activation” value is on record?
Answer: inactive: -0.604%

Question: Cc1cc2c(N)cccc2nn1 was tested. Which “activation” value did it give?
Answer: inactive: -0.3%

Question: Which Potency does the source give for Cc1cc(C)cc(-n2c3nc4ccccc4nc3c3c(=O)n(Cc4ccco4)cnc32)c1 here?
Answer: inconclusive [rising, single point]

Question: For CCN1C(=O)N/C(=C/c2ccc(C)o2)C1=O, which Potency is on record?
Answer: inconclusive [rising, single point]

Question: O=[N+]([O-])c1cccc(-c2n[nH]c(=S)n2Cc2ccccc2)c1 was tested. Which “activation” value did it give?
Answer: inactive: -0.197%
